Assay results taken from the supplement of paper PMC3334620.
The full ranking holds about 33,000 sequences; the median of “E-score (-0.5 to 0.5)” is about -0.012, and the highest 2% start at about 0.29. Some of the results follow.

What follows are sequences tested against T1, Ybr033w (UniProt P38073) (assay: PBM E-score (8-mer binding enrichment) (E-score (-0.5 to 0.5)); higher = stronger / more preferred TF binding; most listed sequences are background and not binding sites). Settings: protein concentration: 200 nM; construct: GST-full length.
T1 sequence: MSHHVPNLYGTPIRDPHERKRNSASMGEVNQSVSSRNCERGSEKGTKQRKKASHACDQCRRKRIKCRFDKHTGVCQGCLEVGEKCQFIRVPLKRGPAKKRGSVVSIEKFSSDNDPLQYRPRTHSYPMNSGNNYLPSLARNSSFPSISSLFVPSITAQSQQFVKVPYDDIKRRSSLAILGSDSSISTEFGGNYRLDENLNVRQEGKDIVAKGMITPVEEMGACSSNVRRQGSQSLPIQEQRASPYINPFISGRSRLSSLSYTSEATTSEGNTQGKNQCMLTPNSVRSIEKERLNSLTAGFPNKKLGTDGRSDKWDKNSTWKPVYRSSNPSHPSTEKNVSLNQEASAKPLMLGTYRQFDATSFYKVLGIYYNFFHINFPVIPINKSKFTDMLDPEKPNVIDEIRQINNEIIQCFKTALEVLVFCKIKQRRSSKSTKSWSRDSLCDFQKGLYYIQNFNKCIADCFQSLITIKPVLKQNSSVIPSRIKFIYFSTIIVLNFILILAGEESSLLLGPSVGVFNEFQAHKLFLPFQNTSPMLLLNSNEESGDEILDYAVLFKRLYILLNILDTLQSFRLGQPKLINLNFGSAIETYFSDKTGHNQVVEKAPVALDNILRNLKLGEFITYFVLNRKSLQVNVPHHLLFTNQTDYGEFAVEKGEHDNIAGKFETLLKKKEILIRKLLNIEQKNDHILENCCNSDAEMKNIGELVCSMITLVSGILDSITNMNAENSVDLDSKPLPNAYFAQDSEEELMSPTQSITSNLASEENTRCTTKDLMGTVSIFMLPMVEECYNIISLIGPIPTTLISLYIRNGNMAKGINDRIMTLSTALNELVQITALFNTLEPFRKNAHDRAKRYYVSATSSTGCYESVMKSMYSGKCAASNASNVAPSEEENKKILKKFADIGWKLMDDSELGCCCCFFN
Outline: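 PURExpress in vitro transcription/translation supplied GST-tagged yeast transcription factors, either full-length or DNA-binding domain. Applied at about 100-200 nM to universal all-10-mer Agilent arrays double-stranded by primer extension, the bound protein was detected with fluorescent anti-GST. E-scores, modified Wilcoxon-Mann-Whitney statistics, were given by the Universal PBM Analysis Suite to ungapped eight-base words pooled with their reverse complements after masliner normalisation.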

Sequence | PBM E-score
GAACGTTA | -0.115
GGATACTA | 0.151
AAGAGTGG | -0.147
GGAACCAA | 0.0624
GATCCCCC | -0.272
CCGTCCAG | -0.231
CCGCGTAG | -0.0434
TAACGCAA | 0.0647
GATGATGC | -0.148
GTGCCATA | -0.0929
GCTAAGCC | -0.146
AGTCCTGG | -0.276
AGCACTCG | 0.0425
CGCATCTC | -0.0636
ACCCGTCG | -0.294
AGGAAAGA | 0.0561
AACTTTGA | 0.188
CAAAGATG | 0.0453
TCCTCGCA | -0.0442
CCATCCTC | -0.0473
CGCGGAAA | -0.0669
CAGCGACA | -0.121
GACCCATC | -0.329
GAAACACA | 0.159
CATTTCGG | -0.0324

Sequence | PBM E-score
CGCAGAAC | -0.0551
CTGCTGCA | -0.0834
ATCAAGAC | 0.0411
AGTTTGAC | 0.0221
CCACTTCC | 0.0269
ACGGATAA | 0.276
CAGTGTCA | -0.046
CCACGCTA | -0.237
CTCTACGA | -0.0937
AGCCTCCG | -0.229
TACATAGA | 0.0247
AACCGGCG | -0.033
AGAGGGGA | -0.16
GTCTCACA | -0.0716
AAGTCATA | 0.204
GATACTAA | 0.246
GATTGGAA | 0.0684
ACGCAAGA | 0.0917
GCAACCGC | -0.00536
ATGGAAAG | 0.122
ACAGGTTG | -0.123
CCGTTTCA | -0.117
CGCTCCCC | -0.429
TCCTCAAA | 0.0737
TATGCAAA | 0.142

Sequence | PBM E-score
GGCCGACC | -0.266
AATGCATC | 0.0507
AGAATATA | 0.134
AACGGGCA | -0.204
AAATGCTA | 0.155
AGGGTAAT | 0.0853
ACGATTCA | 0.0564
ACTCAGTG | 0.00352
CCTCGTCA | -0.0154
CCCTGTAA | 0.0539
CTAGTTGA | 0.193
CTCACTAC | 0.157
AAAAAGCT | 0.0352
AATTAGAG | 0.118
ACACAGAC | -0.0112
CGAGGGCG | -0.2
AGGTTAAA | 0.193
ACCATATC | 0.0412
ATATATGG | 0.146
AGTCTAAG | 0.182
CAGCTTGA | -0.118
ATTCTCAA | 0.129
AGTACATA | 0.199
GCAGTTCC | -0.013
ACTGTACC | -0.0666

Sequence | PBM E-score
CGTAATCC | 0.00897
GAGAGACA | -0.0705
AGCCGCAG | -0.229
AGATAAGG | -0.0552
TAGTGACA | 0.191
GGTAGCTA | -0.185
ACAAGCCT | -0.0261
AGGTATAT | 0.128
GTCTGCAA | -0.192
AGCGACCC | -0.165
ATTGTCAG | 0.0363
AGGGGATC | -0.158
CTATTGAA | 0.235
ATATTCTG | 0.157
CCAGCTCG | -0.167
TCATACAA | 0.163
CACTGGCA | -0.0531
CGGAGGCC | -0.33
CTTACGCA | -0.031
AATACGTC | 0.0808
CTAAGGTA | 0.043
ATTAGCGA | 0.0773
ATTACATC | 0.266
ACTTGTCC | 0.0494
GACAAAAC | 0.144

Sequence | PBM E-score
ATTTATGC | 0.197
CTAAGGAC | -0.11
TTAAGTAA | 0.287
AGGCGTCA | -0.223
AGTGTATG | 0.00317
CAGGTTCG | -0.0708
AGACTACA | -0.18
AATCGTCT | 0.0574
ACGCTTAG | -0.0441
ATTCCGAG | 0.242
AAGCATTC | 0.0632
CGGGGACC | -0.0869
ACAGGTGC | -0.0483
ACGTAGTA | 0.0289
ACGGGCGA | -0.208
AGTGCCAG | -0.131
ACTGATGG | -0.236
CCGGTACA | -0.139
CAACAGCC | -0.00498
CACGAAGA | 0.0846
ATGTCATC | -0.133
CAGACTCG | -0.0866
ATCTAGCC | -0.0426
ACATTGAA | 0.155
GGGGCGCA | -0.268

Sequence | PBM E-score
ACACGCTC | -0.0172
ATTAGCTC | 0.117
CCGCACCG | -0.192
ATAACCTA | 0.03
CTTGCCGA | -0.0582
ACCTCAGC | -0.131
ACCGTGAA | -0.0312
AGCCTACA | -0.0683
AGGGCATG | -0.144
CACTCGCC | -0.0171
GGGCCTGA | -0.295
CGTACAGA | -0.0561
GACGAATA | 0.163
AAGGAATG | 0.151
AATATGAG | 0.245
ATCTTCAA | 0.136
AAATTATT | 0.417
CCCGAATA | 0.121
AAGTAGAC | -0.0111
CCAATTGC | -0.166
GGGCTTGA | -0.229
ACACAGGG | -0.191
AACCTGAA | -0.128
CATGGCAA | -0.048
TGCTGTAA | 0.154

Sequence | PBM E-score
CCAACTAG | 0.0822
TTCAACAA | 0.16
GCCGAACA | 0.0493
ACAGCTAG | -0.105
ATCCACTG | 0.0913
TAGCGGAA | 0.0655
ATATGGAT | 0.138
ACCTTGCT | -0.127
CGGCACGC | -0.227
GGGGATCA | -0.21
AAAGTCCC | -0.0998
ACTTCGGG | -0.0396
CAAAGCAC | -0.0109
CTGTCTTC | 0.0214
GATAGAGC | 0.00911
TGCCAAAA | 0.0578
ACTTTACG | 0.132
AAAGTTCA | 0.157
GTATTAAC | 0.0593
CGTGGGAA | -0.128
ATTTTGAA | 0.175
GACTCAAC | -0.0389
